# Paper PMC5700166
# The list shows a part of the results, in another mix than the full data. The list includes weakly bound sequences.
# Target: T1, GST-Nv-NF-kB (Cys allele) (UniProt E5G601)
# T1 sequence: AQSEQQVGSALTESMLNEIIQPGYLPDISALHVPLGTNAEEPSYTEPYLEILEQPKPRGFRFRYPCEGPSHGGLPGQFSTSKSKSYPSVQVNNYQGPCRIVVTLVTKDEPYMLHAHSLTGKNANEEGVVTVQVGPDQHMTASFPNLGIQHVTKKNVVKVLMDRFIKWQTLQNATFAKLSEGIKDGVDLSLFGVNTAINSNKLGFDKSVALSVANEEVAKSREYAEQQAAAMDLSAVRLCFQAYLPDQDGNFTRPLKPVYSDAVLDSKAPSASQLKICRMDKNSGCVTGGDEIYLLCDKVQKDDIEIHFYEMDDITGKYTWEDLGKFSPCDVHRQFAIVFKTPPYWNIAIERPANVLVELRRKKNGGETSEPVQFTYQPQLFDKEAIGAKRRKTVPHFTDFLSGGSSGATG
# Test: protein-binding microarray (PBM)
# Details: PBM: ~300 nM protein, 6 mM HEPES pH 7.8, 80 mM KCl, 0.5 mM EDTA, 0.5 mM EGTA, 6% glycerol, 35 ng/ul poly-dIdC, 1% milk, 1 h, room temperature; Ap Aiptasia and Nv Nematostella (sea anemones) / Co Capsaspora / Aq Amphimedon (sponge) / Dm Drosophila / Hu human; RHD is the Rel homology domain; high values mean tight binding; most listed sequences are background and not binding sites; double strand, one strand shown
row,Sequence,binding signal [z-score]
1,CCGATTAACATCAGGCTTTCCCATGATGTTAATCGGGTCTTGATTCGCTTGACGCTGCTG,2.94
2,CCGATTAACATCAATACTCCCCCTGATGTTAATCGGGTCTTGATTCGCTTGACGCTGCTG,5.41
3,CCGATTAACATCAGGGGAACACCTGATGTTAATCGGGTCTTGATTCGCTTGACGCTGCTG,6.62
4,CCGATTAACATCAATGTCCCCCCTGATGTTAATCGGGTCTTGATTCGCTTGACGCTGCTG,4.79
5,CCGATTAACATCAGGGGAAAAAATGATGTTAATCGGGTCTTGATTCGCTTGACGCTGCTG,8.26
6,CCGATTAACATCAAGGAAAGCCCTGATGTTAATCGGGTCTTGATTCGCTTGACGCTGCTG,0.737
7,CCGATTAACATCAAAAATTCCCTTGATGTTAATCGGGTCTTGATTCGCTTGACGCTGCTG,9.28
8,CCGATTAACATCAAGGAAAACCCTGATGTTAATCGGGTCTTGATTCGCTTGACGCTGCTG,2.33
9,CCGATTAACATCAAAAACTTCCCTGATGTTAATCGGGTCTTGATTCGCTTGACGCTGCTG,5.84
10,CCGATTAACATCAGGGGGGTTACTGATGTTAATCGGGTCTTGATTCGCTTGACGCTGCTG,4.42
11,CCGATTAACATCAGGAGGTCCCCTGATGTTAATCGGGTCTTGATTCGCTTGACGCTGCTG,3.71
12,CCGATTAACATCAGGAAAGACCCTGATGTTAATCGGGTCTTGATTCGCTTGACGCTGCTG,4.11
13,CCGATTAACATCAGGGATTTTGATGATGTTAATCGGGTCTTGATTCGCTTGACGCTGCTG,2.95
14,CCGATTAACATCACGGGCACCCCTGATGTTAATCGGGTCTTGATTCGCTTGACGCTGCTG,0.527
